This note sets out measurements from the supplement of paper PMC9446081.

Molecules are shown by their SMILES. Screen size: about 39,000 compounds; about 220 (0.56%) showed activity. Some of the results follow.
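Also: static incubation at 37 °C against the wild-type strain, values averaged over two biological replicates.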

The assay concerns Escherichia coli K-12 BW25113. The experiment in a line: relative growth (OD600 normalised to plate interquartile mean) (fraction); higher = less growth inhibition, active = 0.2 or less. Particulars: 50 µM; LB; incubation time: overnight (16-24 h).
For the molecule `COc1nn(C)cc1C(=O)Nc1ccon1`, the relative growth is inactive: 0.987. Consider `C[C@@H]1CN([C@@H](C)CO)C(=O)Cc2cc(NS(=O)(=O)c3cn(C)cn3)ccc2O[C@H]1CN(C)Cc1ccc(C(=O)O)cc1`, for which the relative growth is inactive: 0.997.

With `C[C@@H]1CN([C@@H](C)CO)C(=O)c2cc(NC(=O)Cn3cnnn3)ccc2O[C@@H]1CN(C)C(=O)Nc1ccc(F)cc1`, the relative growth was inactive: 1.02. In the case of `C[C@@H]1CCCCO[C@@H](CN(C)Cc2ccncc2)[C@@H](C)CN([C@H](C)CO)C(=O)c2cc(NC(=O)Nc3ccc4c(c3)OCO4)ccc2O1` it was inactive: 1; in that of `COc1ccc(CN(C)C[C@H]2OCCCC[C@H](C)Oc3ccc(NS(=O)(=O)c4ccc(F)cc4)cc3C(=O)N([C@H](C)CO)C[C@H]2C)cc1`, inactive: 0.978. For `NNC(=O)c1cccc([N+](=O)[O-])c1`, the relative growth was inactive: 0.991. With `C[C@H]1CCCCO[C@@H](CN(C)Cc2ccccc2)[C@@H](C)CN([C@@H](C)CO)C(=O)c2cc(NS(=O)(=O)c3ccc(F)cc3)ccc2O1`, the relative growth was inactive: 0.997. In the case of `C[C@H]1CN([C@@H](C)CO)C(=O)c2cccc(NC(=O)c3nc4ccccc4s3)c2O[C@H]1CN(C)Cc1ccc(Oc2ccccc2)cc1` it was inactive: 1.01; in that of `CO[C@@H]1CN(C)C(=O)c2cc(NC(=O)Nc3ccc(Cl)cc3)ccc2OC[C@H](C)N(C(=O)Nc2c(C)noc2C)C[C@H]1C`, inactive: 0.968; in that of `C[C@@H]1CN([C@@H](C)CO)C(=O)c2cc(NS(=O)(=O)c3ccccc3)ccc2O[C@H]1CN(C)CC1CC1`, inactive: 1. For `COc1ccc(NC(=O)N(C)C[C@@H]2OCCCC[C@H](C)Oc3ccc(NC(=O)Nc4ccc(F)cc4)cc3C(=O)N([C@H](C)CO)C[C@@H]2C)cc1`, the relative growth was inactive: 1.02. Next, `Cc1ccc(S(=O)(=O)N(C)C[C@@H]2OCCCC[C@@H](C)Oc3ccc(NC(=O)Nc4c(C)noc4C)cc3C(=O)N([C@@H](C)CO)C[C@@H]2C)cc1`: inactive: 0.989; `O=C1OC(CO)C(O)C(O)C1O` (stereo not drawn): inactive: 1.07. In the case of `Cc1ccc(S(=O)(=O)Nc2ccc3c(c2)C(=O)N([C@@H](C)CO)C[C@@H](C)[C@H](CN(C)C(=O)Nc2ccc(F)cc2)OCCCC[C@@H](C)O3)cc1`, the relative growth is inactive: 1.01. For `COc1ccc(C=Cc2cc(O)cc(O[C@@H]3O[C@H](CO)[C@@H](O)[C@H](O)[C@H]3O)c2)cc1`, the relative growth was inactive: 0.972. On to `COc1ccc(CN(C)C[C@@H]2OCCCC[C@@H](C)Oc3ccc(NC(=O)Nc4ccc(C(F)(F)F)cc4)cc3C(=O)N([C@H](C)CO)C[C@H]2C)cc1`, for which the relative growth is inactive: 1. Take `CC(=O)Nc1ccc(C(=O)NN)cc1`: the relative growth is inactive: 0.985. In the case of `COc1cccc(S(=O)(=O)N(C)C[C@@H]2Oc3ncc(C#CC(C)(C)O)cc3C(=O)N([C@H](C)CO)C[C@@H]2C)c1`, the relative growth is inactive: 0.992.

As to `O=C(CN1CCOCC1)NCC[C@@H]1CC[C@@H](NC(=O)Nc2ccccc2)[C@H](CO)O1`, the relative growth was inactive: 1.01.

For the molecule `Cc1noc(C)c1S(=O)(=O)Nc1ccc2c(c1)CC(=O)N([C@H](C)CO)C[C@H](C)[C@@H](CN(C)S(=O)(=O)c1ccccc1)O2`, the relative growth is inactive: 0.998. On to `CN(C)C[C@@]12COC[C@H]1CN(C(=O)N(C)C)C2`, for which the relative growth is inactive: 0.99. For `COc1ccc(CN(C)C[C@H]2Oc3ccc(NC(=O)CCCCCC(=O)Nc4ccccc4N)cc3C(=O)N([C@H](C)CO)C[C@H]2C)cc1`, the relative growth was inactive: 1. Take `C[C@@H]1CN([C@H](C)CO)C(=O)c2cc(NC(=O)CCN3CCOCC3)ccc2O[C@H]1CN(C)S(=O)(=O)c1ccccc1`: the relative growth was inactive: 1.01. Take `CCC(=O)OC1C(OC2C(C)C(OC3CC(C)(OC)C(O)C(C)O3)C(C)C(=O)OC(CC)C(C)(O)C(O)C(C)C(=O)C(C)CC2(C)O)OC(C)CC1N(C)C.CCCCCCCCCCCCOS(=O)(=O)O` (stereo not drawn): the relative growth was inactive: 0.953.

Consider `NC(=O)C1CCNCC1`, for which the relative growth is inactive: 1.01.

With `CC(=O)NS(=O)(=O)c1ccccc1`, the relative growth is inactive: 0.98. As for `C[C@@H]1CCCCO[C@@H](CN(C)C(=O)c2ccccc2)[C@H](C)CN([C@@H](C)CO)C(=O)c2cc(NC(=O)Nc3ccc(C(F)(F)F)cc3)ccc2O1`, the relative growth was inactive: 1.06.

Take `COc1ccc(NC(=O)Nc2ccc3c(c2)C(=O)N([C@H](C)CO)C[C@H](C)[C@@H](CN(C)C(=O)Nc2cccc4ccccc24)OCCCC[C@@H](C)O3)cc1`: the relative growth was inactive: 1.02. Next, `C[C@@H]1CCCCO[C@@H](CN(C)C(=O)Nc2ccc(C(F)(F)F)cc2)[C@H](C)CN([C@@H](C)CO)C(=O)c2cc(NS(=O)(=O)c3ccccc3)ccc2O1`: inactive: 1.02; `CN1CCN(C(=O)C[C@@H]2CC[C@@H]3[C@H](COC[C@H](O)CN3CC3CCCC3)O2)CC1`: inactive: 0.975. In the case of `C[C@H]1CN([C@@H](C)CO)C(=O)c2cccc(NC(=O)Nc3ccccc3)c2O[C@@H]1CN(C)S(C)(=O)=O`, the relative growth is inactive: 0.991. Turning to `C[C@H](CO)N1C[C@H](C)[C@@H](CN(C)Cc2ccc3c(c2)OCO3)OCCCC[C@H](C)Oc2ccc(NC(=O)Cc3ccccc3)cc2C1=O`, the relative growth was inactive: 0.979. In the case of `Cc1ccc(S(=O)(=O)Nc2ccc3c(c2)C(=O)N([C@H](C)CO)C[C@@H](C)[C@H](CN(C)CC2CC2)O3)cc1`, the relative growth was inactive: 1.03. Take `O=C(C[C@H]1CC[C@@H]2[C@H](COC[C@H](O)CN2S(=O)(=O)c2ccccc2)O1)N1CCOCC1`: the relative growth was inactive: 0.999. As for `C[C@H]1CCCCO[C@H](CN(C)S(=O)(=O)c2ccc(F)cc2)[C@@H](C)CN([C@@H](C)CO)C(=O)c2cc(NC(=O)Cc3ccccc3)ccc2O1`, the relative growth was inactive: 1.01. As for `Cc1ccc(S(=O)(=O)N(C)C[C@H]2Oc3c(NC(=O)c4ccncc4)cccc3C(=O)N([C@H](C)CO)C[C@H]2C)cc1`, the relative growth was inactive: 0.832.

Take `C[C@H]1CCCCO[C@@H](CN(C)C(=O)Nc2ccccc2)[C@@H](C)CN([C@@H](C)CO)C(=O)c2cc(NC(=O)NC3CCCCC3)ccc2O1`: the relative growth is inactive: 0.995. Consider `C[C@@H]1CN([C@H](C)CO)C(=O)c2cc(NC(=O)Nc3ccc(C(F)(F)F)cc3)ccc2O[C@H]1CN(C)S(=O)(=O)c1ccc(Cl)cc1`, for which the relative growth is inactive: 0.997.
